Assay results taken from the supplement of paper PMC10724272.
MIC of invasive clinical C. tropicalis isolates, CLSI broth microdilution (fluconazole 0.12-256 mg/L, up to 1,024 for the azole-resistant cluster and its neighbour group; other ranges not stated); higher = less susceptible. Call: susceptible or wild type [S] / resistant or non-wild type [R] by CLSI breakpoints or cut-offs; intermediate and dose-dependent carry no call. '<=' and '>=' at the end values are inferred; the source marks only some of them. Isolates are numbered anew.

The test systems below were run with CC[C@H](C)C[C@H](C)CCCCCCCCC(=O)N[C@H]1C[C@@H](O)[C@@H](NCCN)NC(=O)[C@@H]2[C@@H](O)CCN2C(=O)[C@H]([C@H](O)CCN)NC(=O)[C@H]([C@H](O)[C@@H](O)c2ccc(O)cc2)NC(=O)[C@@H]2C[C@@H](O)CN2C(=O)[C@H]([C@@H](C)O)NC1=O [caspofungin] (assay: CLSI broth microdilution.).

Row | Test System | MIC
1 | Candida tropicalis isolate 385 (ERG11 copies: 2, Erg11p: no key change) | 0.06 mg/L [S]
2 | Candida tropicalis isolate 220 (ERG11 copies: 2, Erg11p: no key change) | 0.03 mg/L [S]
3 | Candida tropicalis isolate 143 (ERG11 copies: 2, Erg11p: no key change) | 0.06 mg/L [S]
4 | Candida tropicalis isolate 145 (ERG11 copies: 7, Erg11p: Y132F, S154F (heterozygous)) | 0.03 mg/L [S]
5 | Candida tropicalis isolate 48 (ERG11 copies: 8, Erg11p: Y132F, S154F (heterozygous)) | 0.5 µg/mL
6 | Candida tropicalis isolate 133 (ERG11 copies: 2, Erg11p: no key change) | 0.03 mg/L [S]
7 | Candida tropicalis isolate 130 (ERG11 copies: 2, Erg11p: no key change) | 0.03 mg/L [S]
8 | Candida tropicalis isolate 154 (ERG11 copies: 2, Erg11p: no key change) | 0.06 mg/L [S]
9 | Candida tropicalis isolate 390 (ERG11 copies: 2, Erg11p: no key change) | 0.03 mg/L [S]
10 | Candida tropicalis isolate 272 (ERG11 copies: 2, Erg11p: no key change) | 0.06 mg/L [S]
11 | Candida tropicalis isolate 296 (ERG11 copies: 2, Erg11p: no key change) | 0.03 mg/L [S]
12 | Candida tropicalis isolate 209 (ERG11 copies: 2, Erg11p: no key change) | 0.03 mg/L [S]
13 | Candida tropicalis isolate 5 (ERG11 copies: 6, Erg11p: Y132F, S154F (heterozygous)) | 0.03 mg/L [S]
14 | Candida tropicalis isolate 426 (ERG11 copies: 2, Erg11p: no key change) | 0.03 mg/L [S]
15 | Candida tropicalis isolate 392 (ERG11 copies: 2, Erg11p: no key change) | 0.06 mg/L [S]
16 | Candida tropicalis isolate 124 (ERG11 copies: 2, Erg11p: no key change) | 0.03 mg/L [S]
17 | Candida tropicalis isolate 103 (ERG11 copies: 2, Erg11p: no key change) | 0.03 mg/L [S]
18 | Candida tropicalis isolate 206 (ERG11 copies: 2, Erg11p: no key change) | 0.03 mg/L [S]

The test systems below were run with C[C@@H](c1ncncc1F)[C@](O)(Cn1cncn1)c1ccc(F)cc1F [voriconazole] (assay: CLSI broth microdilution.).

Row | Test System | MIC
19 | Candida tropicalis isolate 41 (ERG11 copies: 2, Erg11p: no key change) | 0.06 mg/L [S]
20 | Candida tropicalis isolate 114 (ERG11 copies: 2, Erg11p: no key change) | 0.03 mg/L [S]
21 | Candida tropicalis isolate 52 (ERG11 copies: 2, Erg11p: Y132F, S154F (homozygous)) | ≥ 8 mg/L [R]
22 | Candida tropicalis isolate 431 (ERG11 copies: 2, Erg11p: no key change) | 0.12 mg/L [S]
23 | Candida tropicalis isolate 366 (ERG11 copies: 8, Erg11p: Y132F, S154F (heterozygous)) | ≥ 8 mg/L [R]
24 | Candida tropicalis isolate 171 (ERG11 copies: 2, Erg11p: no key change) | 0.03 mg/L [S]
25 | Candida tropicalis isolate 278 (ERG11 copies: 2, Erg11p: no key change) | 0.5 µg/mL
26 | Candida tropicalis isolate 358 (ERG11 copies: 2, Erg11p: Y132F, S154F (heterozygous)) | 4 mg/L [R]
27 | Candida tropicalis isolate 363 (ERG11 copies: 2, Erg11p: no key change) | 0.25 µg/mL
28 | Candida tropicalis isolate 268 (ERG11 copies: 2, Erg11p: no key change) | 0.12 mg/L [S]
29 | Candida tropicalis isolate 233 (ERG11 copies: 10, Erg11p: Y132F, S154F (heterozygous)) | ≥ 8 mg/L [R]
30 | Candida tropicalis isolate 138 (ERG11 copies: 2, Erg11p: no key change) | 0.03 mg/L [S]
31 | Candida tropicalis isolate 224 (ERG11 copies: 2, Erg11p: no key change) | 0.12 mg/L [S]
32 | Candida tropicalis isolate 217 (ERG11 copies: 2, Erg11p: no key change) | 0.25 µg/mL
33 | Candida tropicalis isolate 357 (ERG11 copies: 2, Erg11p: no key change) | 0.12 mg/L [S]
34 | Candida tropicalis isolate 231 (ERG11 copies: 2, Erg11p: no key change) | 0.5 µg/mL
35 | Candida tropicalis isolate 150 (ERG11 copies: 16, Erg11p: Y132F, S154F (heterozygous)) | ≥ 8 mg/L [R]
36 | Candida tropicalis isolate 234 (ERG11 copies: 2, Erg11p: no key change) | 0.12 mg/L [S]

Row | Test System | MIC
37 | Candida tropicalis isolate 385 (ERG11 copies: 2, Erg11p: no key change) | 1 mg/L [R]
38 | Candida tropicalis isolate 220 (ERG11 copies: 2, Erg11p: no key change) | 0.06 mg/L [S]
39 | Candida tropicalis isolate 143 (ERG11 copies: 2, Erg11p: no key change) | 0.06 mg/L [S]
40 | Candida tropicalis isolate 145 (ERG11 copies: 7, Erg11p: Y132F, S154F (heterozygous)) | ≥ 8 mg/L [R]
41 | Candida tropicalis isolate 48 (ERG11 copies: 8, Erg11p: Y132F, S154F (heterozygous)) | ≥ 8 mg/L [R]
42 | Candida tropicalis isolate 133 (ERG11 copies: 2, Erg11p: no key change) | 0.06 mg/L [S]
43 | Candida tropicalis isolate 130 (ERG11 copies: 2, Erg11p: no key change) | 0.06 mg/L [S]
44 | Candida tropicalis isolate 154 (ERG11 copies: 2, Erg11p: no key change) | 0.06 mg/L [S]
45 | Candida tropicalis isolate 390 (ERG11 copies: 2, Erg11p: no key change) | 0.25 µg/mL
46 | Candida tropicalis isolate 272 (ERG11 copies: 2, Erg11p: no key change) | ≥ 8 mg/L [R]
47 | Candida tropicalis isolate 296 (ERG11 copies: 2, Erg11p: no key change) | 0.12 mg/L [S]
48 | Candida tropicalis isolate 209 (ERG11 copies: 2, Erg11p: no key change) | 0.12 mg/L [S]
49 | Candida tropicalis isolate 5 (ERG11 copies: 6, Erg11p: Y132F, S154F (heterozygous)) | > 8 mg/L [R]
50 | Candida tropicalis isolate 426 (ERG11 copies: 2, Erg11p: no key change) | 0.12 mg/L [S]
51 | Candida tropicalis isolate 392 (ERG11 copies: 2, Erg11p: no key change) | 0.06 mg/L [S]
52 | Candida tropicalis isolate 124 (ERG11 copies: 2, Erg11p: no key change) | ≥ 8 mg/L [R]
53 | Candida tropicalis isolate 103 (ERG11 copies: 2, Erg11p: no key change) | ≤ 0.008 mg/L [S]
54 | Candida tropicalis isolate 206 (ERG11 copies: 2, Erg11p: no key change) | 0.12 mg/L [S]

The test systems below were run with C[C@@H]1[C@H](O)[C@@H](C)/C=C/C=C/C=C/C=C/C=C/C=C/C=C/[C@H](O[C@@H]2O[C@H](C)[C@@H](O)[C@H](N)[C@@H]2O)C[C@@H]2O[C@](O)(C[C@@H](O)C[C@@H](O)[C@H](O)CC[C@@H](O)C[C@@H](O)CC(=O)O[C@H]1C)C[C@H](O)[C@H]2C(=O)O [amphotericin B] (assay: CLSI broth microdilution.).

Row | Test System | MIC
55 | Candida tropicalis isolate 41 (ERG11 copies: 2, Erg11p: no key change) | 1 mg/L [S]
56 | Candida tropicalis isolate 114 (ERG11 copies: 2, Erg11p: no key change) | 1 mg/L [S]
57 | Candida tropicalis isolate 52 (ERG11 copies: 2, Erg11p: Y132F, S154F (homozygous)) | 1 mg/L [S]
58 | Candida tropicalis isolate 431 (ERG11 copies: 2, Erg11p: no key change) | 0.5 mg/L [S]
59 | Candida tropicalis isolate 366 (ERG11 copies: 8, Erg11p: Y132F, S154F (heterozygous)) | 1 mg/L [S]
60 | Candida tropicalis isolate 171 (ERG11 copies: 2, Erg11p: no key change) | 1 mg/L [S]
61 | Candida tropicalis isolate 278 (ERG11 copies: 2, Erg11p: no key change) | 1 mg/L [S]
62 | Candida tropicalis isolate 358 (ERG11 copies: 2, Erg11p: Y132F, S154F (heterozygous)) | 1 mg/L [S]
63 | Candida tropicalis isolate 363 (ERG11 copies: 2, Erg11p: no key change) | 1 mg/L [S]
64 | Candida tropicalis isolate 268 (ERG11 copies: 2, Erg11p: no key change) | 1 mg/L [S]
65 | Candida tropicalis isolate 233 (ERG11 copies: 10, Erg11p: Y132F, S154F (heterozygous)) | 1 mg/L [S]
66 | Candida tropicalis isolate 138 (ERG11 copies: 2, Erg11p: no key change) | 0.5 mg/L [S]
67 | Candida tropicalis isolate 224 (ERG11 copies: 2, Erg11p: no key change) | 1 mg/L [S]
68 | Candida tropicalis isolate 217 (ERG11 copies: 2, Erg11p: no key change) | 0.5 mg/L [S]
69 | Candida tropicalis isolate 357 (ERG11 copies: 2, Erg11p: no key change) | 1 mg/L [S]
70 | Candida tropicalis isolate 231 (ERG11 copies: 2, Erg11p: no key change) | 1 mg/L [S]
71 | Candida tropicalis isolate 150 (ERG11 copies: 16, Erg11p: Y132F, S154F (heterozygous)) | 1 mg/L [S]
72 | Candida tropicalis isolate 234 (ERG11 copies: 2, Erg11p: no key change) | 1 mg/L [S]
73 | Candida tropicalis isolate 385 (ERG11 copies: 2, Erg11p: no key change) | 1 mg/L [S]
74 | Candida tropicalis isolate 220 (ERG11 copies: 2, Erg11p: no key change) | 1 mg/L [S]
75 | Candida tropicalis isolate 143 (ERG11 copies: 2, Erg11p: no key change) | 1 mg/L [S]
76 | Candida tropicalis isolate 145 (ERG11 copies: 7, Erg11p: Y132F, S154F (heterozygous)) | 2 mg/L [S]
77 | Candida tropicalis isolate 48 (ERG11 copies: 8, Erg11p: Y132F, S154F (heterozygous)) | 1 mg/L [S]
78 | Candida tropicalis isolate 133 (ERG11 copies: 2, Erg11p: no key change) | 1 mg/L [S]
79 | Candida tropicalis isolate 130 (ERG11 copies: 2, Erg11p: no key change) | 0.5 mg/L [S]
80 | Candida tropicalis isolate 154 (ERG11 copies: 2, Erg11p: no key change) | 1 mg/L [S]
81 | Candida tropicalis isolate 390 (ERG11 copies: 2, Erg11p: no key change) | 1 mg/L [S]
